Results on 120 sequences are retold here after the supplement of paper PMC10126150.

Values marked as one replicate rest on one cluster of the flow cell; about a third of the high ones do not repeat.

In the data set the test system is ATP. The experiment in a line: switch fluorescence ratio, 500 uM ATP over buffer (Cy3 cluster intensity, sum of 5 cycles each) (fold (ratio)); higher = stronger signal-on switching upon ATP binding; sequences stand for … in TCGTCGGCAGCGTCAGATGTGTATAAGAGACAGTTTTTTTTTTTTTTTTTTTTTTTTT…TC. The note with it: aptamer strand: ATP DNA aptamer (quencher-CACCTGGGGGAGTATTGCGGAGGAAGG + anchor), 100 nM annealed; ATP concentration: 500 uM; one replicate. The method, boiled down: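 Clusters carrying Cy3-labelled switching strands on a modified Illumina MiSeq flow-cell were annealed to 100 nM quencher-labelled ATP aptamer and imaged in selection buffer. They were imaged again after 15 min with 500 uM ATP at 22 °C, over five buffer/ATP cycles with NaOH stripping and re-annealing in between. For each cluster, the fluorescence ratio is the summed Cy3 intensity of the target cycles divided by that of the buffer cycles, averaged per switch-domain sequence. Clusters outside 100-1000 RFU were left out.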
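Note: ATP exposure 15 min at 22 °C before imaging.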

As for TAGTTAGGTG, the switch fluorescence ratio was determined as 1.1.

With CCGTTTCAAG, the switch fluorescence ratio was 1.04.

With CAACGTTTGA, the switch fluorescence ratio was 0.991.

Turning to TTTAAACCGC, the switch fluorescence ratio was determined as 1.19.

Turning to TCGAACGCAG, the switch fluorescence ratio was 2.2.

In the case of AGGAACCTTA, the switch fluorescence ratio amounted to 1.15.

For GTCAATTCAC, the switch fluorescence ratio was found to be 1.12.

In the case of GGTACTTCA, the switch fluorescence ratio is 1.04.

With AACGCTTAAC, the switch fluorescence ratio is 1.84.

With TCAGGCGGCC, the switch fluorescence ratio is 0.965.

On to CGGTCAGGCT, for which the switch fluorescence ratio turned out to be 0.973.

For the sequence AAAATCGCAC, the switch fluorescence ratio came to 1.3.

As for TCAAAGAGCG, the switch fluorescence ratio is 1.02.

For ACCAGCGTAG, the switch fluorescence ratio came out at 1.

Regarding TCTTCATCCA, the switch fluorescence ratio came out at 1.24.

Turning to GAAATCTGAT, the switch fluorescence ratio was 0.993.

In the case of AAGTAACATA, the switch fluorescence ratio was determined as 1.05.

Turning to ACATGGGAG, the switch fluorescence ratio was 1.04.

For AACAATATTT, the switch fluorescence ratio came out at 1.02.

GGAAAACGTT: the switch fluorescence ratio turned out to be 0.98.

For TCACAACTGT, the switch fluorescence ratio turned out to be 0.987.

As for GGTATCTTCC, the switch fluorescence ratio came to 1.84.

With CATGACGTCG, the switch fluorescence ratio came out at 0.982.

For TTGTGGTATC, the switch fluorescence ratio worked out at 1.03.

As to CATTGACTTG, the switch fluorescence ratio worked out at 1.01.

Turning to TCTCTAAGAC, the switch fluorescence ratio is 1.35.

On to GAGCGTATAA, for which the switch fluorescence ratio worked out at 1.03.

Turning to AAAACAGACG, the switch fluorescence ratio was 1.07.

For CAGCTATTA, the switch fluorescence ratio worked out at 1.05.

Consider TATGGACCAT, for which the switch fluorescence ratio came to 1.

For the sequence TTATGTACCA, the switch fluorescence ratio was 1.08.

As to GCTTTGCCGA, the switch fluorescence ratio stood at 1.01.

Regarding AGAGCAGGA, the switch fluorescence ratio is 0.966.

In the case of CGCGGCGGGG, the switch fluorescence ratio is 1.05.

Turning to ACGGCTTTTA, the switch fluorescence ratio is 0.955.

On to TACCCATACT, for which the switch fluorescence ratio is 1.2.

Turning to TCTTATGGGT, the switch fluorescence ratio worked out at 0.944.

Take CGGGCGGCGC: the switch fluorescence ratio worked out at 0.968.

Take CGGCCTTCCA: the switch fluorescence ratio came out at 1.53.

On to GAATATAAAT, for which the switch fluorescence ratio turned out to be 1.01.

As to GGGGTATGC, the switch fluorescence ratio was 1.03.

With TATGGAAATC, the switch fluorescence ratio was determined as 1.02.

GGCTTTGATC: the switch fluorescence ratio was 1.05.

As to GGCCATACTT, the switch fluorescence ratio was 1.03.

For the sequence TGTCCCTTGG, the switch fluorescence ratio turned out to be 1.02.

As to GGGGGGTTG, the switch fluorescence ratio was determined as 0.934.

On to TGCAGCTGGG, for which the switch fluorescence ratio turned out to be 0.98.

Take AAATGTATAC: the switch fluorescence ratio stood at 1.04.

GCGATGGCTT: the switch fluorescence ratio came to 0.986.

Regarding TATGATAAAG, the switch fluorescence ratio was 1.03.

As for AAAGTCGTTA, the switch fluorescence ratio stood at 0.977.

TTTGTAAGAC: the switch fluorescence ratio is 1.18.

Take CTCCAATGCC: the switch fluorescence ratio was determined as 1.43.

Consider AATATAAGTG, for which the switch fluorescence ratio was found to be 1.02.

For the sequence AAACTAGTAG, the switch fluorescence ratio was 0.984.

For GGTAATCTTC, the switch fluorescence ratio was 0.975.

Take AAACTTTACT: the switch fluorescence ratio turned out to be 1.22.

Consider CTCGGTATGG, for which the switch fluorescence ratio was 0.992.

Turning to ATTCCTGTTG, the switch fluorescence ratio was determined as 1.04.

With CCTTCGGCTT, the switch fluorescence ratio stood at 1.58.

Regarding CATATATAAC, the switch fluorescence ratio was found to be 0.972.

For the sequence GAAGTGGACT, the switch fluorescence ratio was found to be 0.989.

For the sequence TAGATTGGGG, the switch fluorescence ratio turned out to be 0.972.

Regarding TATACCGACT, the switch fluorescence ratio came out at 1.05.

Turning to TAGCGGACGC, the switch fluorescence ratio was 0.999.

Turning to AGGGTACATG, the switch fluorescence ratio came out at 1.01.

Take ATCAAGCGGA: the switch fluorescence ratio was 1.01.

As to ACACCGGATA, the switch fluorescence ratio was found to be 1.15.

For the sequence CCTATTCCGT, the switch fluorescence ratio turned out to be 1.05.

Turning to CCCTTGGTTC, the switch fluorescence ratio came out at 1.03.

Turning to CTGGGATAGC, the switch fluorescence ratio is 0.972.

As to AACTAGGGTA, the switch fluorescence ratio worked out at 0.983.

On to GAGGCACAGA, for which the switch fluorescence ratio came to 0.991.

As for CCCAGGCACG, the switch fluorescence ratio stood at 1.05.

GTTGTCCTGA: the switch fluorescence ratio turned out to be 1.03.

With TAGGTGTGAC, the switch fluorescence ratio stood at 0.982.

Take GGTCCTTGGA: the switch fluorescence ratio is 0.996.

As for ATTTAGTTG, the switch fluorescence ratio was 0.977.

As for GTCTAATTGT, the switch fluorescence ratio worked out at 0.962.

With GTATGGACTA, the switch fluorescence ratio was 0.996.

Turning to ATTTAACTGT, the switch fluorescence ratio was 1.02.

As for GCGAGTGCTC, the switch fluorescence ratio is 1.06.

As for TTCAAGGCCA, the switch fluorescence ratio was 0.997.

With CCATGGCCAG, the switch fluorescence ratio was found to be 0.984.

On to AGAGCACAGT, for which the switch fluorescence ratio was 1.

On to GTGATAAA, for which the switch fluorescence ratio turned out to be 0.982.

For CTAATCTCTT, the switch fluorescence ratio was 0.99.

As for ACTTGGGCG, the switch fluorescence ratio turned out to be 1.01.

For the sequence ACGAACAGT, the switch fluorescence ratio was 1.11.

Regarding TGGAGCACGA, the switch fluorescence ratio turned out to be 1.23.

As to ACATGTTTTG, the switch fluorescence ratio was found to be 0.981.

On to CAATGCCTTT, for which the switch fluorescence ratio turned out to be 1.06.

Take CGCCCCGATC: the switch fluorescence ratio stood at 1.12.

As for GGTCTTCCCG, the switch fluorescence ratio came out at 1.03.

As to CCGCTGGGAG, the switch fluorescence ratio was 1.24.

Turning to GGATAGGGCT, the switch fluorescence ratio is 0.98.

For CTCGAACGAG, the switch fluorescence ratio stood at 1.

Turning to CTTGCAGAGC, the switch fluorescence ratio is 0.97.

In the case of TCGAAATCAA, the switch fluorescence ratio worked out at 0.985.

In the case of AACTTAACAT, the switch fluorescence ratio amounted to 1.07.

For TTTAATGGTA, the switch fluorescence ratio is 0.964.

Turning to TCTATCAAAA, the switch fluorescence ratio came to 1.04.

With TTTACAGCTC, the switch fluorescence ratio turned out to be 1.

For TCTCATCACA, the switch fluorescence ratio was determined as 0.999.

With AGAACGGGTG, the switch fluorescence ratio is 1.11.

For the sequence GAAATCTGCA, the switch fluorescence ratio is 1.12.

On to TGAGACACGT, for which the switch fluorescence ratio was found to be 1.

Turning to CGTAGGGATG, the switch fluorescence ratio was found to be 0.944.

Take CGCTCTTTCA: the switch fluorescence ratio stood at 0.979.

For the sequence ACGCAGATTG, the switch fluorescence ratio is 1.06.

In the case of GGTATTCGTC, the switch fluorescence ratio came to 0.977.

ATTCTGGAGC: the switch fluorescence ratio was determined as 1.44.

Consider ACTTCACCAA, for which the switch fluorescence ratio stood at 1.33.

For the sequence AATAGGGTGG, the switch fluorescence ratio worked out at 1.02.

With ATAGCGACGC, the switch fluorescence ratio amounted to 0.935.

Take GCCAAGACGA: the switch fluorescence ratio is 1.31.

In the case of TAGGGGATGT, the switch fluorescence ratio stood at 1.02.

Regarding GATAGTAGGT, the switch fluorescence ratio was 1.38.

As for TATGGATAGC, the switch fluorescence ratio came to 1.03.

Consider TTGTGCGTCT, for which the switch fluorescence ratio came out at 0.946.
